In the supplement of paper PMC8728848:
This is one part of the list.

How the values were obtained:
Test in all cases: glycan array binding signal (z-score within array); higher = stronger binding
Details in all cases: glycan notation: IUPAC condensed, linker removed
[1] = biological target: Fuc(a1-2)[Gal(a1-3)]Gal(b1-3)GlcNAc(b1-3)GalNAc
In short: (§1)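 The binding signal is a Z-score computed within each array. Data were drawn from 3228 arrays in the Consortium for Functional Glycomics database, restricted to those with a known protein sequence. Scores were averaged over arrays of the same protein sequence at different concentrations or buffers, and over linkers, and negative values can be taken as non-binding.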

[2] = biological target: Fuc(a1-2)[Gal(a1-3)]Gal(b1-3)GlcNAc(b1-6)GalNAc
In short: as §1

[3] = biological target: Fuc(a1-2)[Gal(a1-3)]Gal(b1-4)Glc
In short: as §1

[4] = biological target: Fuc(a1-2)[Gal(a1-3)]Gal(b1-4)GlcNAc
In short: as §1

[5] = biological target: Fuc(a1-2)[Gal(a1-3)]Gal(b1-4)GlcNAc(b1-2)Man
In short: as §1

[6] = biological target: Fuc(a1-2)[Gal(a1-3)]Gal(b1-4)GlcNAc(b1-2)Man(a1-3)[Fuc(a1-2)[Gal(a1-3)]Gal(b1-4)GlcNAc(b1-2)Man(a1-6)]Man(b1-4)GlcNAc(b1-4)GlcNAc
In short: as §1

[7] = biological target: Fuc(a1-2)[Gal(a1-3)]Gal(b1-4)GlcNAc(b1-2)Man(a1-3)[Fuc(a1-2)[Gal(a1-3)]Gal(b1-4)GlcNAc(b1-2)Man(a1-6)]Man(b1-4)GlcNAc(b1-4)[Fuc(a1-6)]GlcNAc
In short: as §1

[8] = biological target: Fuc(a1-2)[Gal(a1-3)]Gal(b1-4)GlcNAc(b1-3)GalNAc
In short: as §1

[9] = biological target: Fuc(a1-2)[Gal(a1-3)]Gal(b1-4)GlcNAc(b1-3)[Fuc(a1-2)[Gal(a1-3)]Gal(b1-4)GlcNAc(b1-6)]GalNAc
In short: as §1

[10] = biological target: Fuc(a1-2)[Gal(a1-3)]Gal(b1-4)GlcNAc(b1-6)GalNAc
In short: as §1

[11] = biological target: Fuc(a1-2)[Gal(a1-3)]Gal(b1-4)[Fuc(a1-3)]Glc
In short: as §1

[12] = biological target: Fuc(a1-2)[Gal(a1-3)]Gal(b1-4)[Fuc(a1-3)]GlcNAc
In short: as §1

[13] = biological target: Fuc(a1-2)[Gal(a1-3)]Gal(b1-4)[Fuc(a1-3)]GlcNAc(b1-3)GalNAc
In short: as §1

[14] = biological target: Fuc(a1-2)[Gal(a1-4)]Gal(b1-4)GalNAc
In short: as §1

[15] = biological target: Fuc(a1-2)[Gal(a1-4)]Gal(b1-4)GlcNAc
In short: as §1

[16] = biological target: Fuc(a1-2)[GalNAc(a1-3)]Gal
In short: as §1

[17] = biological target: Fuc(a1-2)[GalNAc(a1-3)]Gal(b1-3)GalNAc(a1-3)[Fuc(a1-2)]Gal(b1-4)GlcNAc
In short: as §1

[18] = biological target: Fuc(a1-2)[GalNAc(a1-3)]Gal(b1-3)GalNAc(b1-3)Gal(a1-4)Gal(b1-4)Glc
In short: as §1

[19] = biological target: Fuc(a1-2)[GalNAc(a1-3)]Gal(b1-3)GlcNAc
In short: as §1

[20] = biological target: Fuc(a1-2)[GalNAc(a1-3)]Gal(b1-3)GlcNAc(b1-2)Man(a1-3)[Fuc(a1-2)[GalNAc(a1-3)]Gal(b1-3)GlcNAc(b1-2)Man(a1-6)]Man(b1-4)GlcNAc(b1-4)GlcNAc
In short: as §1

[21] = biological target: Fuc(a1-2)[GalNAc(a1-3)]Gal(b1-3)GlcNAc(b1-2)Man(a1-3)[Fuc(a1-2)[GalNAc(a1-3)]Gal(b1-3)GlcNAc(b1-2)Man(a1-6)]Man(b1-4)GlcNAc(b1-4)[Fuc(a1-6)]GlcNAc
In short: as §1

[22] = biological target: Fuc(a1-2)[GalNAc(a1-3)]Gal(b1-3)GlcNAc(b1-3)GalNAc
In short: as §1

[23] = biological target: Fuc(a1-2)[GalNAc(a1-3)]Gal(b1-3)GlcNAc(b1-6)GalNAc
In short: as §1

[24] = biological target: Fuc(a1-2)[GalNAc(a1-3)]Gal(b1-4)Glc
In short: as §1

[25] = biological target: Fuc(a1-2)[GalNAc(a1-3)]Gal(b1-4)GlcNAc
In short: as §1

[26] = biological target: Fuc(a1-2)[GalNAc(a1-3)]Gal(b1-4)GlcNAc(b1-2)Man
In short: as §1

[27] = biological target: Fuc(a1-2)[GalNAc(a1-3)]Gal(b1-4)GlcNAc(b1-2)Man(a1-3)[Fuc(a1-2)[GalNAc(a1-3)]Gal(b1-4)GlcNAc(b1-2)Man(a1-6)]Man(b1-4)GlcNAc(b1-4)GlcNAc
In short: as §1

[28] = biological target: Fuc(a1-2)[GalNAc(a1-3)]Gal(b1-4)GlcNAc(b1-2)Man(a1-3)[Fuc(a1-2)[GalNAc(a1-3)]Gal(b1-4)GlcNAc(b1-2)Man(a1-6)]Man(b1-4)GlcNAc(b1-4)[Fuc(a1-6)]GlcNAc
In short: as §1

[29] = biological target: Fuc(a1-2)[GalNAc(a1-3)]Gal(b1-4)GlcNAc(b1-3)Gal(b1-4)GlcNAc
In short: as §1

[30] = biological target: Fuc(a1-2)[GalNAc(a1-3)]Gal(b1-4)GlcNAc(b1-3)Gal(b1-4)GlcNAc(b1-3)Gal(b1-4)GlcNAc
In short: as §1

B1: Epa15 (Candida glabrata) (protein)
chain: MGSSHHHHHHSSGLVPRGSHMASDPTTFPLGCSPEFTKTKKGLSMELYRYDYLPPGSYPCWDSAYLNPSYPRTGYKAKKLIATVDGVSGDINFKFNPKFGCKAIPDYLPSNFNYHEPITITNFTMILYGYFMPKTTAFHTFYVTADDLLFMNFGAGNAFDCCRREETADKFGNYAAYSVWGKKSLKNELTVYLHTGVYYPIRLFYNNRDYIAQLDIRFKTEHSNAIITNFTDYFYSVDDSSLGCPGLI
glycan array binding signal (z-score) [1]: -0.421 | glycan array binding signal (z-score) [2]: -0.071 | glycan array binding signal (z-score) [3]: -0.292 | glycan array binding signal (z-score) [4]: -0.351 | glycan array binding signal (z-score) [5]: -0.424 | glycan array binding signal (z-score) [6]: 1.24 | glycan array binding signal (z-score) [7]: 0.144 | glycan array binding signal (z-score) [8]: -0.309 | glycan array binding signal (z-score) [9]: 0.365 | glycan array binding signal (z-score) [10]: -0.436 | glycan array binding signal (z-score) [11]: -0.136 | glycan array binding signal (z-score) [12]: 0.145 | glycan array binding signal (z-score) [13]: 1.09 | glycan array binding signal (z-score) [14]: 0.138 | glycan array binding signal (z-score) [15]: 0.84 | glycan array binding signal (z-score) [16]: -0.197 | glycan array binding signal (z-score) [17]: -0.31 | glycan array binding signal (z-score) [18]: -0.474 | glycan array binding signal (z-score) [19]: -0.374 | glycan array binding signal (z-score) [20]: -0.478 | glycan array binding signal (z-score) [21]: -0.063 | glycan array binding signal (z-score) [22]: 0.215 | glycan array binding signal (z-score) [23]: -0.175 | glycan array binding signal (z-score) [24]: -0.088 | glycan array binding signal (z-score) [25]: -0.378 | glycan array binding signal (z-score) [26]: -0.623 | glycan array binding signal (z-score) [27]: 0.653 | glycan array binding signal (z-score) [28]: -0.163 | glycan array binding signal (z-score) [29]: -0.618 | glycan array binding signal (z-score) [30]: 1.84
